Laboratory results taken from the supplement of paper PMC9174493.
The other results are listed elsewhere or left out. Single values of this set are uncertain. Values with irradiation are relative to irradiated vehicle.

These compounds were tested on A549-Dual (assay: NF-kB reporter (SEAP) activity, viability-corrected, relative to vehicle (fold change vs vehicle); higher = more activation of STING-IRF / NF-kB immune response reporter). Details: 10 µM; irradiation: 8 Gy/4 fr.
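Also: viability correction based on the alamar blue assay, with concentrations leaving 10% survival or less dropped.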

SMILES | NF-kB reporter
O=c1[nH]c(=O)n(C2CC(O)C(CO)O2)cc1F (centres undefined) [Floxuridine] | 0.996
CC1(C)CCC(CN2CCN(c3ccc(C(=O)NS(=O)(=O)c4ccc(NCC5CCOCC5)c([N+](=O)[O-])c4)c(Oc4cnc5[nH]ccc5c4)c3)CC2)=C(c2ccc(Cl)cc2)C1 [Venetoclax (ABT-199, GDC-0199)] | 0.76
Cc1ccc(NC(=O)c2ccc(CN3CCN(C)CC3)cc2)cc1Nc1nc(-c2cccnc2)cs1 [Masitinib (AB1010)] | 0.758
CCc1cc(/C(C)=N/OCc2ccc(C3CCCCC3)c(C(F)(F)F)c2)ccc1CN1CC(C(=O)O)C1 [BAF312 (Siponimod)] | 0.34
CN(C)C(=O)COC(=O)Cc1ccc(OC(=O)c2ccc(NC(=N)N)cc2)cc1.CS(=O)(=O)O [Camostat Mesilate] | 0.771
Nc1nc(=S)c2[nH]cnc2[nH]1 [Thioguanine] | 0.707
OCC1OC(Oc2cc(O)cc(/C=C/c3ccc(O)cc3)c2)C(O)C(O)C1O (centres undefined) [Polydatin] | 1.75
COc1cc(N2CCC(N3CCN(C)CC3)CC2)ccc1Nc1ncc(Cl)c(Nc2ccccc2P(C)(C)=O)n1 | 1.38
Cc1cccn2c(=O)c(-c3nnn[n-]3)cnc12.[K+] [Pemirolast potassium] | 1.18
Cc1cccc(N(C)C(=S)Oc2ccc3ccccc3c2)c1 [Tolnaftate] | 0.815

Same assay, conditions: 10 µM; irradiation: none

SMILES | NF-kB reporter
C=CC(=O)Nc1cc(Nc2nccc(-c3cn(C)c4ccccc34)n2)c(OC)cc1N(C)CCN(C)C [Osimertinib (AZD9291)] | 1.15
CC1CC2C3CCC4=CC(=O)C=CC4(C)C3(F)C(O)CC2(C)C1(O)C(=O)COP(=O)([O-])[O-].[Na+].[Na+] (centres undefined) [Dexamethasone Sodium Phosphate] | 1.53
O=C(O)CCCN1CCC(OC(c2ccc(Cl)cc2)c2ccccn2)CC1.O=S(=O)(O)c1ccccc1 (centres undefined) [Bepotastine Besilate] | 1.09
CC(=O)OC(C)C(C)C(=O)OCC12C3CC4(C)C(=CCC5C6(C)CCC(OC7OC(C(=O)[O][Na])C(OC8OC(CO)C(O)C(O)C8O)C(O)C7OC7OCC(O)C(O)C7O)C(C)(CO)C6CCC54C)C1CC(C)(C)C(O3)C2O (centres undefined) [Sodium Aescinate] | 1.26
Nc1nc(CC(=O)Nc2ccc(CCNCC(O)c3ccccc3)cc2)cs1 (centres undefined) [Mirabegron] | 0.967
O=C1OC(OC(=O)c2cccnc2Nc2cccc(C(F)(F)F)c2)c2ccccc21 (centres undefined) [Talniflumate] | 0.998
CN1C(C(=O)Nc2ccccn2)=C(O)c2sccc2S1(=O)=O [Tenoxicam] | 0.952
CCC(=O)NS(=O)(=O)c1ccc(-c2c(-c3ccccc3)noc2C)cc1 [Parecoxib] | 0.97
CNCC(O)C(O)C(O)C(O)CO.Cc1c(Nc2ncccc2C(=O)O)cccc1C(F)(F)F [Flunixin Meglumin] | 0.839
Cc1cncc(CN2CCC(=C3c4ccc(Cl)cc4CCc4cccnc43)CC2)c1.O=C(O)/C=C/C(=O)O [Rupatadine Fumarate] | 0.809
COC(=O)CC(O)(CCCC(C)(C)O)C(=O)OC1C(OC)=CC23CCCN2CCc2cc4c(cc2C13)OCO4 (centres undefined) [Homoharringtonine] | 3.05
CC(C(=O)[O-])c1ccc(CC2CCCC2=O)cc1.[Na+] (centres undefined) [Loxoprofen Sodium] | 1.15
C=C1c2cccc(O)c2C(=O)C2=C(O)C3(O)C(=O)C(C(N)=O)=C(O)C(N(C)C)C3C(O)C12.Cl (centres undefined) [Methacycline HCl] | 0.914
CC1CCC2(C(=O)OC3OC(COC4OC(CO)C(OC5OC(C)C(O)C(O)C5O)C(O)C4O)C(O)C(O)C3O)CCC3(C)C(=CCC4C5(C)CC(O)C(O)C(C)(CO)C5CCC43C)C2C1C (centres undefined) [Asiaticoside] | 1.23
Nc1nc(F)nc2c1ncn2C1OC(CO)C(O)C1O (centres undefined) [Fludarabine] | 0.882
O=NN(CCCl)C(=O)NC1CCCCC1 [Lomustine] | 0.787
O=CC(O)C(O)C(O)C(O)COC1OC(CO)C(O)C(O)C1O (centres undefined) [Melibiose] | 0.953
O.S=c1nc[nH]c2nc[nH]c12 [6-Mercaptopurine (6-MP) Monohydrate] | 0.833
CC(C(=O)O)c1cccc(C(=O)c2ccccc2)c1 (centres undefined) [Ketoprofen] | 0.781
CNC1CCC(c2ccc(Cl)c(Cl)c2)c2ccccc21.Cl (centres undefined) [Sertraline HCl] | 0.734

SMILES | NF-kB reporter
CC1(C)OC2CC3C4CCC5=CC(=O)CCC5(C)C4(F)C(O)CC3(C)C2(C(=O)CCl)O1 (centres undefined) [Halcinonide] | 1.27
CC(=O)OC12COC1CC(O)C1(C)C(=O)C(O)C3=C(C)C(OC(=O)C(O)C(NC(=O)OC(C)(C)C)c4ccccc4)CC(O)(C(OC(=O)c4ccccc4)C21)C3(C)C (centres undefined) [Docetaxel] | 1.78
CCN(CC)Cc1cc(Nc2ccnc3cc(Cl)ccc23)ccc1O.Cl.Cl [Amodiaquine hydrochloride] | 0.979
Cc1c(N)c(=O)n(-c2ccccc2)n1C [4-Aminoantipyrine] | 0.994
Cn1cnc2c(F)c(Nc3ccc(Br)cc3F)c(C(=O)NOCCO)cc21 | 1.74
CC1(C)C2CCC1(C)C(O)C2 (centres undefined) [Borneol] | 0.947
CC1CC2C3CCC4=CC(=O)C=CC4(C)C3(Cl)C(O)CC2(C)C1(OC(=O)c1ccco1)C(=O)CCl (centres undefined) [Mometasone furoate] | 0.713
CCN(CC)CCCC(C)Nc1ccnc2cc(Cl)ccc12.O=P(O)(O)O.O=P(O)(O)O (centres undefined) [Chloroquine Phosphate] | 1.18
COc1cc2c(cc1Cc1cccc(Cl)c1F)c(=O)c(C(=O)O)cn2C(CO)C(C)C (centres undefined) [Elvitegravir (GS-9137, JTK-303)] | 0.926
O=c1[nH]c(=O)n(C2CC(O)C(CO)O2)cc1F (centres undefined) [Floxuridine] | 1.38
CC1(C)CCC(CN2CCN(c3ccc(C(=O)NS(=O)(=O)c4ccc(NCC5CCOCC5)c([N+](=O)[O-])c4)c(Oc4cnc5[nH]ccc5c4)c3)CC2)=C(c2ccc(Cl)cc2)C1 [Venetoclax (ABT-199, GDC-0199)] | 0.985
Cc1ccc(NC(=O)c2ccc(CN3CCN(C)CC3)cc2)cc1Nc1nc(-c2cccnc2)cs1 [Masitinib (AB1010)] | 0.828
CCc1cc(/C(C)=N/OCc2ccc(C3CCCCC3)c(C(F)(F)F)c2)ccc1CN1CC(C(=O)O)C1 [BAF312 (Siponimod)] | 0.785
CN(C)C(=O)COC(=O)Cc1ccc(OC(=O)c2ccc(NC(=N)N)cc2)cc1.CS(=O)(=O)O [Camostat Mesilate] | 0.84
Nc1nc(=S)c2[nH]cnc2[nH]1 [Thioguanine] | 0.711
OCC1OC(Oc2cc(O)cc(/C=C/c3ccc(O)cc3)c2)C(O)C(O)C1O (centres undefined) [Polydatin] | 0.881
COc1cc(N2CCC(N3CCN(C)CC3)CC2)ccc1Nc1ncc(Cl)c(Nc2ccccc2P(C)(C)=O)n1 | 1.1
Cc1cccn2c(=O)c(-c3nnn[n-]3)cnc12.[K+] [Pemirolast potassium] | 1.45
Cc1cccc(N(C)C(=S)Oc2ccc3ccccc3c2)c1 [Tolnaftate] | 0.8
